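Test compounds were applied to cells in 96-well plates for 48 hours at 5 doses. GI50 = concentration required for 50% inhibition of growth. TGI denotes the concentration required for complete inhibition of growth.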

The experiment concerns NCI-H322M lung. The experiment is described as follows: NCI anticancer screen, dose series, 48 h.
For the molecule `CCCn1c(=O)c2[nH]c(-c3ccc(OCc4nc5ccc(C)cc5[nH]4)cc3)nc2n(CCC)c1=O`, the GI50 was 15.8 µM and the TGI is above 100 µM.

On to `c1ccc(C(=C(c2ccc(OCCN3CCCCC3)cc2)c2ccc(OCCN3CCCCC3)cc2)C2CCCC2)cc1`, for which the GI50 was 6.25 µM and the TGI was above 18 µM.

As for `CNC(=O)c1cc(Oc2ccc3nc(NC(=O)Nc4cccc(OC(F)(F)F)c4)sc3c2)ccn1`, the GI50 is 3.61 µM and the TGI was above 100 µM.

As to `CSc1ccc(C(=O)Nc2ccc3nnn(/C(C#N)=C/c4ccccn4)c3c2)cc1`, the GI50 was 4.46 µM and the TGI turned out to be 16.3 µM.

As to `CN1CCN(c2ccc(C(=O)/C=C/c3cc(C(F)(F)F)cc(C(F)(F)F)c3)cc2)CC1`, the GI50 is 1.65 µM and the TGI is 3.43 µM.

For the origin of these results see PubChem BioAssay (NCI).
